# Data reported in PMC4336329 (PLoS ONE, 2015).
# Out of some 310,000 compounds screened, about 2,200 (0.71%) showed an effect of 50% or more. Effects have a minus sign here. The list shows a part of the results. Where a SMILES comes first, the peptide text is derived from it. The star is where a group is joined. Bz = O=C(c1ccccc1)*
# Target: human ether-à-go-go-related gene (hERG) potassium channel (human, UniProt Q12809)
# Assay: primary screen, population patch clamp on CHO cells stably expressing hERG
# human ether-à-go-go-related gene (hERG) potassium channel, sequence (Q12809 whole entry, looked up): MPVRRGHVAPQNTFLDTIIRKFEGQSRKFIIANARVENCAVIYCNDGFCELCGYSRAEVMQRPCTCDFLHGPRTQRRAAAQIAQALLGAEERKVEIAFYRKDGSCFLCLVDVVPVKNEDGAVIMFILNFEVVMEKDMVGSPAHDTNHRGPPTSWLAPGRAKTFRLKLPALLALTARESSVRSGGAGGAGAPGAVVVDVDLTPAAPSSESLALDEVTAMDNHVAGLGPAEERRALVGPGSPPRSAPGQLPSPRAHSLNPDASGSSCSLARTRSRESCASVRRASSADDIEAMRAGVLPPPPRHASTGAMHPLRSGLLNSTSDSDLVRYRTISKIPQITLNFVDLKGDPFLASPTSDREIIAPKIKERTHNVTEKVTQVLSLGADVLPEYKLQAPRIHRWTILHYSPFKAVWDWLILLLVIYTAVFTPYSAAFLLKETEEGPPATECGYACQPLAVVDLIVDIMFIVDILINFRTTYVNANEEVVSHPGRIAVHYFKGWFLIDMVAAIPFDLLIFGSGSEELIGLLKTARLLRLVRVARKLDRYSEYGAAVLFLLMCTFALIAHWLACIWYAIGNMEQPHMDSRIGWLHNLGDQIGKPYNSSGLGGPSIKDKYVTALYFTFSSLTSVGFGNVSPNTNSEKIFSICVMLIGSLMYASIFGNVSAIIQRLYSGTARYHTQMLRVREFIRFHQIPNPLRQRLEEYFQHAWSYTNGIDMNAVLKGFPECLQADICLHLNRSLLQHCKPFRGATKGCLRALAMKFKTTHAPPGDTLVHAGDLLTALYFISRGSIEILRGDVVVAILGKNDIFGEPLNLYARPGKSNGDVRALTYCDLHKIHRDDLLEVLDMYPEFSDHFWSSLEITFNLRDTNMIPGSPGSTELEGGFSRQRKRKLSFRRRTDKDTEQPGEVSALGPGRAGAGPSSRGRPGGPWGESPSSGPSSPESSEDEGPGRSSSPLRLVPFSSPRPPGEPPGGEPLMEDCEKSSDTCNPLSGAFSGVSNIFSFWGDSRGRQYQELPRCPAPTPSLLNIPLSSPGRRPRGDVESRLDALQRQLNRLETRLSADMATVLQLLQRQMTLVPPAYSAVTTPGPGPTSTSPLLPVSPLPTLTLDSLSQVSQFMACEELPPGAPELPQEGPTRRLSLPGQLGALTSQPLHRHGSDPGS
row,SMILES,"hERG current change (%, negative = inhibition) at 1uM"
1,O=C(Nc1nnc(-c2ccccc2)o1)NC1CCCCC1,7.53%
2,CCS(=O)(=O)c1ccc(O)c(NC(=O)CC2(CC(=O)O)CCCC2)c1,10.9%
3,Cc1ccc(S(=O)(=O)N(C)c2nonc2C)cc1,-13%
4,CC(=O)c1cccc(NC(=O)Nc2cccs2)c1,9%
5,Cc1oc(-c2ccccc2Cl)nc1CS(=O)CC(=O)NCc1ccccc1Cl (centres unmarked),11.3%
6,CC(C)(C)c1ccc2c(c1)OC(C(=O)N/N=C\c1ccc[nH]1)CO2 (centres unmarked),1.63%
7,COc1ccc2noc3c2c1C(=O)c1ccccc1-3,12.3%
8,O=C(Cn1cncn1)N/N=C/c1c2ccccc2cc2ccccc12,3.21%
9,Cc1nc2nc(C)c(CCC(=O)NCCCN3CCN(c4cccc(Cl)c4)CC3)c(C)n2n1.Cl,6.6%
10,O=C(COc1cccnc1[N+](=O)[O-])Nc1ccccc1Sc1ccccc1,4.72%
11,Cc1sc2nc(N3CCOCC3)[nH]c(=O)c2c1-c1ccccc1,2.1%
12,CC(C)C(NC(=O)COc1ccccc1)C(=O)O (centres unmarked),2.74%
13,COc1ccc(C(c2sc3nc(C)nn3c2O)N2CCN(CCO)CC2)cc1OC (centres unmarked),12.2%
14,CCOC(=O)C1=C(CC)Nc2ccccc2N=C1NC(=O)Nc1ccc(Cl)c(Cl)c1,-1.58%
15,Cc1cc(Cl)c(S(=O)(=O)NC(C)C)cc1OCC(N)=O,17.3%
16,CCOC(=O)c1ccc(NC(=O)Cc2cccs2)cc1,7.18%
17,COc1c[nH]n(C2CCCCC2)c(=O)c1=O,13.6%
18,CC(=O)C1C(c2cccc(Oc3ccccc3)c2)NC(=O)NC1(O)C(F)(F)F (centres unmarked),4.89%
19,CCOC(=O)C1(Cc2ccccc2)CCCN(C(=O)c2ccc(-n3ccnc3)cc2)C1 (centres unmarked),-36.5%
20,O=C(COc1ccc(Cl)cc1Cl)NCc1ccco1,7.23%

row,SMILES,"hERG current change (%, negative = inhibition) at 1uM"
1,CCCc1nc2sc3ccccc3c(=O)c2c(=O)n1CCOC,15.4%
2,CCC(=O)N1N=C(c2cccs2)CC1c1ccc(C)cc1 (centres unmarked),19.2%
3,CCCN1CNC(=S)N(c2ccccc2C)C1,12.4%
4,O=[N+]([O-])c1ccc(Cl)c(CN2CCCCCC2)c1,9.23%
5,CCCCNC(=O)c1ccccc1NS(=O)(=O)c1ccc2c(c1)OCCO2,13%
6,CC1CCC/C(=C\c2ccc(O)cc2)C1=O (centres unmarked),10.4%
7,COc1ccc2nc(N3CCC(C)CC3)c(C#N)cc2c1,19.1%
8,CC1CCCC(NC(=O)COC(=O)c2cccc(S(=O)(=O)N3CCCCC3)c2)C1C (centres unmarked),7.46%
9,COCCCNc1nc2ccccc2[nH]c1=O,21.8%
10,CCN1CCN(c2nc(N(C)c3ccccc3)nc(N)c2[N+](=O)[O-])CC1,23.3%
11,COc1ccccc1CCNC(=O)C(=O)NCC1OCCN1S(=O)(=O)c1ccc(Br)cc1 (centres unmarked),-9.98%
12,CCCOc1ccc(/C=N/Nc2ccccc2[N+](=O)[O-])c(OCCC)c1,6.34%
13,Cc1ccc2cc(CN(Cc3ccco3)C(=S)NCC3CCCO3)c(=O)[nH]c2c1 (centres unmarked),4.46%
14,CN(C)c1ccc(CN2CCCCC2)cc1,20.5%
15,O=C(CSc1ccccc1)N1CCN(S(=O)(=O)c2ccccc2)CC1,10.4%
16,COC(=O)c1cccnc1NC(=S)NNC(=O)c1ccccc1,21.4%
17,COC(=O)/C(C#N)=C/c1ccc(OC(=O)c2ccccn2)cc1,8.64%
18,O=C(Nc1ccccc1)c1cc(S(=O)(=O)N2CCOCC2)cs1,-6.54%
19,CSc1ccc(S(=O)(=O)Nc2c(C)cccc2C)cc1,10.3%
20,O=C(NC(Cc1ccccc1)C(=O)N1CCCC1C(=O)O)c1ccccc1 (stereo not drawn) (Bz-Phe-Pro-OH; configuration not given here),12.2%

row,SMILES,"hERG current change (%, negative = inhibition) at 1uM"
1,CSc1ccccc1N1CCN(C(=O)Nc2ccc3c(c2)NC(=O)CO3)CC1,-4.72%
2,COc1cccc(CNC(=O)c2ccccc2-c2ccccc2)c1,10.4%
3,Cc1cc(C)cc(C(=O)NCC(=O)OCC(=O)N2CCCCC2)c1,8.39%
4,Cc1nc(SCc2ccc(Br)cc2)[nH]c(=O)c1C,10.3%
5,Cc1ccc(/C=C/C(=O)Nc2cc(S(=O)(=O)N3CCOCC3)ccc2N2CCOCC2)cc1,-8.01%
6,Clc1ccc(-c2nsc(N3CCOCC3)n2)c(Cl)c1,12.5%
7,CSc1ccc(C(c2c(O)c3ccccc3oc2=O)c2c(C)n(C)n(-c3ccccc3)c2=O)cc1 (centres unmarked),2.76%
8,O=C1c2cccc3cccc(c23)C(=O)N1CCN1CCN(C(=S)Nc2ccccc2)CC1,4.16%
9,O=C(O)C(Cc1ccc(Cl)cc1)Sc1nc2ccccc2[nH]1 (centres unmarked),12.7%
10,CCOC(=O)Cc1nnc(NC(=O)C(CC)Sc2nnc3c4ccccc4n(C)c3n2)s1 (centres unmarked),12.5%
11,COC(=O)c1nnn(-c2nonc2N)c1CSc1ccc(Cl)cc1,4.85%
12,Cc1cc(N2CCCCC2)nc(SCc2ccc(C#N)cc2)n1,4.03%
13,COc1ccccc1Cc1nnnn1CC(=O)O,7.98%
14,O=C(CN(Cc1ccccc1F)C(=O)Cn1nnc(-c2cccs2)n1)NC1CCCCC1,11.1%
15,COc1cccc(C2(O)CCN(Cc3ccncc3)CC2)c1,11.8%
16,O=C(NCCCn1ccnc1)c1cc2c(s1)CCCCC2,0.477%
17,COc1cc(NC(=S)Nc2ccc3c(c2)OCCO3)cc(OC)c1OC,11.5%
18,Cc1nc(SCC(=O)NCCc2ccc(Cl)cc2)nc(C)c1C,10.8%
19,CSC1=N/C(=C\c2ccc(F)cc2)C(=O)S1,-2.96%
